From PubChem BioAssay (NCI)
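48-hour exposure; five concentrations; linearly interpolated endpoints. Here, GI50 denotes the concentration required for 50% inhibition of growth. TGI: total growth inhibition.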

system: NCI-H322M lung; assay: NCI anticancer screen, dose series, 48 h

| SMILES | GI50 [µM] | TGI [µM] |
| --- | --- | --- |
| O=C(Nc1ccc(F)cc1)c1cc(-c2ccc(F)cc2F)ccc1O | 2.85 | 15.1 |
| Oc1ccc(CSc2nnc(-c3ccncc3)n2-c2ccccc2)c2cccnc12 | 1.94 | > 100 |
| COc1cc(/C=C/C(=O)c2cc(OC)c(OC)c(OC)c2)ccc1Oc1nc(NCCO)nc(N2CCOCC2)n1 | 2.91 | 8.63 |
| Cc1cc2nc(C(Cl)Cl)nc(-c3cccs3)n2n1 | 0.561 | 3.09 |
| N#Cc1cnc2ccc(-c3cnc4[nH]ncc4c3)cc2c1N1CCc2cc(F)c(Cl)cc21 | 0.382 | > 100 |
| Cc1ccc(NC(=O)c2ccc(CN3CCN(C)CC3)c(C(F)(F)F)c2)cc1Oc1ccc(-c2[nH]nc3ncnc(N)c23)cc1 | 2.43 | 6.11 |
